Laboratory results published in article PMC4336329 (PLoS ONE, 2015).
Hit rate of the full screen: of about 310,000 compounds, about 2,200 (0.71%) showed an effect of 50% or more. The effect is printed as a negative number. The list shows a part of the results.

Target: human ether-à-go-go-related gene (hERG) potassium channel (human, UniProt Q12809)
Experiment: primary screen, population patch clamp on CHO cells stably expressing hERG

Sequence of human ether-à-go-go-related gene (hERG) potassium channel (Q12809 whole entry, looked up): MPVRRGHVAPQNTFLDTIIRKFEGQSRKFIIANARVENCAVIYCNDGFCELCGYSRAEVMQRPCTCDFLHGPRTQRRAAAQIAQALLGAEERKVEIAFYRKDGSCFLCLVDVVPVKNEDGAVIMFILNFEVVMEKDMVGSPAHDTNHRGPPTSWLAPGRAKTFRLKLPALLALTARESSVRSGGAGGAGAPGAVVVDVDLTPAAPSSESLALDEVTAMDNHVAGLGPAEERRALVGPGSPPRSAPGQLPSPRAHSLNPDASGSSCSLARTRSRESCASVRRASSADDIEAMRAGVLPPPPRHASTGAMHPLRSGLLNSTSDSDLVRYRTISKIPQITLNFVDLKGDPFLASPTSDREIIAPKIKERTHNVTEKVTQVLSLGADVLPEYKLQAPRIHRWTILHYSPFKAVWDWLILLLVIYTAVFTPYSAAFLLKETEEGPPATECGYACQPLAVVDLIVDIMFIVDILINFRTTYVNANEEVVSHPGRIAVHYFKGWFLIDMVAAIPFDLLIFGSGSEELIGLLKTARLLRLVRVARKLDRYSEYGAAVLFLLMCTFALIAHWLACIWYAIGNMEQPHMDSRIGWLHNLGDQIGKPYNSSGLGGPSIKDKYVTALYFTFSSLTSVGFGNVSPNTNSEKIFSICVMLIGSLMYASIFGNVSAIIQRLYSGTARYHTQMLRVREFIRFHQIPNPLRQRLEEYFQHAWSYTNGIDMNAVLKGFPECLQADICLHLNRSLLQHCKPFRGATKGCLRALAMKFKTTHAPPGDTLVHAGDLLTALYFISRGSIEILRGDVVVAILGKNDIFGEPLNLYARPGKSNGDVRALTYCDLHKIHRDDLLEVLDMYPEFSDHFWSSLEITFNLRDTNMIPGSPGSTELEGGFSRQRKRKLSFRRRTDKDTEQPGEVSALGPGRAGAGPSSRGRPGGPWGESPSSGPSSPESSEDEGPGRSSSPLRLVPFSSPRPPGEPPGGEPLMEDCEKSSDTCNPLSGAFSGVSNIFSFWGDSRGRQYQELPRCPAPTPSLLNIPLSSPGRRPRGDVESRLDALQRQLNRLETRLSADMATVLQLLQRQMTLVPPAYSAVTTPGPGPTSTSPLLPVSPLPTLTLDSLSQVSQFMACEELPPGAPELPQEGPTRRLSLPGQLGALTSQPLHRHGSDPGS

Structure (SMILES) | hERG current change (%, negative = inhibition) at 1uM [%]
Cc1cccc(C(=O)Nc2ccc(NC(=O)c3ccccc3)cc2)c1 | 10.9
COc1ccccc1NC(=S)NC(NC(=O)C(C)C)C(Cl)(Cl)Cl (stereo not drawn) | 14
N#Cc1ccc(OCC(=O)OCCCOC(=O)COc2ccc(C#N)cc2)cc1 | -13.2
Cc1[nH]c2ccccc2c1SCC(=O)NC1CCCCC1 | 19.7
CCCN1C(=O)c2cc(C(=O)NCc3ccc(OC)cc3)ccc2C1O (stereo not drawn) | -0.313
CCOc1ncccc1C(=O)Nc1ccc2c(c1)OCO2 | 2.38
COc1cccc(C(=O)CN(C(=O)c2ccc(Cl)c(Cl)c2)N2C(=O)c3ccccc3C2=O)c1 | -5.42
COc1ccc(/C(C)=N\O)cc1OC | 6.66
O=S(=O)(c1ccccc1)N1CCC(c2ccccc2)CC1 | 20.7
CCCN(C(=O)Cc1nc(N)n[nH]1)C1(C(=O)Nc2c(C)cccc2C)CCCCC1 | 9.95
Cc1c(C(=O)c2ccc(Br)cc2)c(=O)n(C)c(=O)n1C | 13.6
O=C(COc1c(Cl)cccc1Cl)NN1C(=O)CSC1=S | 9.68
COc1ccc(CCNCc2sccc2C)cc1OC.Cl | 9.67
COc1ccc(C(=O)c2coc3ccc(OC(C)=O)cc23)cc1 | 20.8
COc1cccc(C(=O)Nc2cccc(-c3ccc(N4CCOCC4)nn3)c2)c1OC | 10.6
COc1ccc(Cl)cc1N=Cc1c(O)cc(C)oc1=O | 11
O=C(O)CNC(=O)c1ccccc1Br | 11.6
Cc1nn(-c2ccccc2)c(N2CCCC2)c1/C=N/NC(=O)c1cc2ccccc2cc1O | -2.01
O=C(c1ccccc1)N(CCO)Cc1cc2cc3c(cc2[nH]c1=O)OCCO3 | 13.9
Cc1ccc(S(=O)(=O)N2CCC(C(=O)OCC(=O)N(C)Cc3ccccc3)CC2)cc1C | 5.61
Fc1ccc(/C=N/c2c(-c3ccc(F)cc3)nc3n2CCS3)cc1 | 3.18
CCc1nc(-c2ccc(OC)c(OC)c2)cc2cc(OC)c(OC)cc12 | 14.2
CCC(C)(C)NC(=O)CCn1c(-c2ccccc2)cc(C(C)=O)c1C | 5.91

Structure (SMILES) | hERG current change (%, negative = inhibition) at 1uM [%]
CCc1nnc(N/N=C/c2ccc(N3CCC(C)CC3)c([N+](=O)[O-])c2)n1N | 8.15
COc1ccccc1NC(=O)Nc1ccc(C)cn1 | 20.8
C/C=C/C(=O)N1c2ccc(C)cc2C(C)=CC1(C)C | 6.83
O=C1Nc2ccccc2C(c2ccccc2)=NC1O (stereo not drawn) | 11.5
O=C(N/N=C/c1oc(O)c2ccccc12)c1ccccc1 | 18.6
COc1ccc(CCNC(=O)CCS(=O)(=O)c2ccc3c(c2)CCN3C(C)=O)cc1OC | 5.21
COc1ccc(C(=O)Nc2ccccc2)cc1S(=O)(=O)Nc1cc(C)on1 | 3.83
CCOc1cc(S(=O)(=O)NCc2ccc3c(c2)OCO3)ccc1F | 10.6
CCCCN(C)C(=O)CCC(=O)Nc1ccc2nc(N3CCN(C)CC3)cc(C)c2c1 | 4.32
COc1ccc(C2Oc3ccccc3C3=C2C(c2cccs2)n2ncnc2N3)cc1 (stereo not drawn) | -6.5
Cc1ccc(C)c2[nH]c(=O)c(CN(Cc3ccc4c(c3)OCO4)Cc3nnnn3Cc3ccco3)cc12 | 1.76
O=C(Nc1cccc(-n2cnnn2)c1)c1ccco1 | 8.04
CCOc1cc(-c2noc(CCC(=O)NCCc3ccccc3)n2)ccc1OC | 14
COc1ccc(NC(=O)c2cncc(Br)c2)cc1S(=O)(=O)N1CCCCC1 | 6.65
COc1ccc(OC)c(N=C(N)N=C(N)N)c1 | 6.95
O=C(Cc1csc(-c2ccccc2)n1)NCc1ccc(F)cc1 | 4.14
COC(=O)c1cc(C(=O)OC)cc(N2C(=O)CN=C2Nc2nc(C)cc(C)n2)c1 | 8.41
O=C(/C=C/Nc1ccccc1)C(F)(F)F | 5.89
Cc1ccc(S(=O)(=O)c2cc(O)ccc2O)cc1C | 3.35
Nc1nonc1N/N=C\c1ccccc1 | 3.26
O=C1NC2(CCc3ccccc32)C(=O)N1CCOc1ccc(Cl)cc1 (stereo not drawn) | 11.2
O=C(NCc1cccs1)c1cc(-c2ccncc2)nc2ccc(Br)cc12 | 13.2
